Scores with a large standard error are left out. Not listed are two conditions whose scores span a narrow range. Names with del lack the residues named; names with ins carry added residues between the positions named. For part of these data: How much ogerin was present is not stated here.
B1: GPR68, Q15743 (parent)
chain: MGNITADNSSMSCTIDHTIHQTLAPVVYVTVLVVGFPANCLSLYFGYLQIKARNELGVYLCNLTVADLFYICSLPFWLQYVLQHDNWSHGDLSCQVCGILLYENIYISVGFLCCISVDRYLAVAHPFRFHQFRTLKAAVGVSVVIWAKELLTSIYFLMHEEVIEDENQHRVCFEHYPIQAWQRAINYYRFLVGFLFPICLLLASYQGILRAVRRSHGTQKSRKDQIQRLVLSTVVIFLACFLPYHVLLLVRSVWEASCDFAKGVFNAYHFSLLLTSFNCVADPVLYCFVSETTHRDLARLRGACLAFLTCSRTGRAREAYPLGAPEASGKSGAQGEEPELLTKLHPAFQTPNSPGSGGFPTGRLA

Columns and labels:
[1] = variants of: B1; assay: cAMP reporter score (Enrich2 score, wild type = 0); higher = more signal; HEK293T, FACS bins
[2] = variants of: B1; assay: surface expression score (Enrich2 score, wild type = 0); higher = more signal; HEK293T, FACS bins

| Variant | cAMP reporter score ([1]; pH 5.5) | cAMP reporter score ([1]; pH 6) | cAMP reporter score ([1]; pH 6, modulator: ogerin) | cAMP reporter score ([1]; pH 6.5, modulator: ogerin) | surface expression score [2] |
| --- | --- | --- | --- | --- | --- |
| MGNITADNSSMSCTIDHTIHQTLAPVVYVTVLVVGFPANCLSLYFGYLQIKARNELGVYLCNLTVADLFYICSLPFWLQYVLQHDNWSHGDLSCQVCGILLYENIYISVGFLCCISVDRYLAVAHPFRFHQFRTLKAAVGVSVVIWAKELLTSIYFLMHEEVIEDENQHRVCFEHYPIQAWQRAINYYRFLKGFLFPICLLLASYQGILRAVRRSHGTQKSRKDQIQRLVLSTVVIFLACFLPYHVLLLVRSVWEASCDFAKGVFNAYHFSLLLTSFNCVADPVLYCFVSETTHRDLARLRGACLAFLTCSRTGRAREAYPLGAPEASGKSGAQGEEPELLTKLHPAFQTPNSPGSGGFPTGRLA [V192K] | -1.25 | -0.746 | -1.4 | -1.62 | -2.44 |
| MGNITADNSSMSCTIDHTIHQTLAPVVYVTVLVVGFPANCLSLYFGYLQIKARNELGVYLCNLTVADLFYICSLPFWLQYVLQHDNWSHGDLSCQVCGILLYENIYISVGFLCCISVDRYLAVAHPFRFHQFRTLKAAVGVSVVIWAKELLTSIYFLMHEEVIEDENQHRVCFEHYPIQAWQRAINYYRFLMGFLFPICLLLASYQGILRAVRRSHGTQKSRKDQIQRLVLSTVVIFLACFLPYHVLLLVRSVWEASCDFAKGVFNAYHFSLLLTSFNCVADPVLYCFVSETTHRDLARLRGACLAFLTCSRTGRAREAYPLGAPEASGKSGAQGEEPELLTKLHPAFQTPNSPGSGGFPTGRLA [V192M] | -0.391 | -0.354 | -0.268 | -0.765 | -0.386 |
| MGNITADNSSMSCTIDHTIHQTLAPVVYVTVLVVGFPANCLSLYFGYLQIKARNELGVYLCNLTVADLFYICSLPFWLQYVLQHDNWSHGDLSCQVCGILLYENIYISVGFLCCISVDRYLAVAHPFRFHQFRTLKAAVGVSVVIWAKELLTSIYFLMHEEVIEDENQHRVCFEHYPIQAWQRAINYYRFLLGFLFPICLLLASYQGILRAVRRSHGTQKSRKDQIQRLVLSTVVIFLACFLPYHVLLLVRSVWEASCDFAKGVFNAYHFSLLLTSFNCVADPVLYCFVSETTHRDLARLRGACLAFLTCSRTGRAREAYPLGAPEASGKSGAQGEEPELLTKLHPAFQTPNSPGSGGFPTGRLA [V192L] | 1.08 | 0.957 | 0.341 | 0.448 | -0.209 |
| MGNITADNSSMSCTIDHTIHQTLAPVVYVTVLVVGFPANCLSLYFGYLQIKARNELGVYLCNLTVADLFYICSLPFWLQYVLQHDNWSHGDLSCQVCGILLYENIYISVGFLCCISVDRYLAVAHPFRFHQFRTLKAAVGVSVVIWAKELLTSIYFLMHEEVIEDENQHRVCFEHYPIQAWQRAINYYRFLPGFLFPICLLLASYQGILRAVRRSHGTQKSRKDQIQRLVLSTVVIFLACFLPYHVLLLVRSVWEASCDFAKGVFNAYHFSLLLTSFNCVADPVLYCFVSETTHRDLARLRGACLAFLTCSRTGRAREAYPLGAPEASGKSGAQGEEPELLTKLHPAFQTPNSPGSGGFPTGRLA [V192P] | -2.59 |  | -0.713 | -0.438 |  |
